Normalised cell viability data for 33 molecules are collected here from the supplement of paper PMC6609913.

SMILES strings stand for the structures. Where a name gives a salt, the structure may show the parent alone. ± gives the standard deviation of the averaged measurements. In all, about 1,300 compounds were measured (“normalised cell viability”: median about 1, lowest 2% from about 0.15 on). Some of the results follow.

The assay concerns V-C8 + BRCA2 (BRCA2-proficient hamster cells). The assay is described as follows: normalised cell viability (fraction of plate median); higher = more viable cells (less toxic). The following applies: 5 µM. A digest of the protocol: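 Hamster V-C8 cells lacking BRCA2 and V-C8 cells with BRCA2 restored were seeded in 96-well plates. Library drugs (10 mM DMSO stocks) were added 24 h later at 5 μM in 100 μl medium, next to DMSO control wells, for 3 days (screen 1) or 6 days (screen 2). Cell viability was read by resazurin assay, median-plate normalised (modified robust per cent of sample), and triplicate wells were averaged.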

For the molecule `N[C@@H]1CCCCN(c2c(F)cc3c(=O)c(C(=O)O)cn(C4CC4)c3c2Cl)C1` [Besifloxacin hydrochloride], the normalised cell viability came to 1.04 ± 0.049 (treatment time: 3 days) and 1.03 ± 0.021 (treatment time: 6 days).
The like results for `CCOc1ccccc1OCC1CNCCO1` (stereo unspecified) [Viloxazine hydrochloride] were, in that order, 0.994 ± 0.032 and 1.01 ± 0.072.
Turning to `CC[C@H]1OC(=O)[C@H](C)[C@@H](O[C@H]2C[C@@](C)(OC)[C@@H](O)[C@H](C)O2)[C@H](C)[C@@H](O[C@@H]2O[C@H](C)C[C@H](N(C)C)[C@H]2O)[C@](C)(OC)C[C@@H](C)C(=O)[C@H](C)[C@@H](O)[C@]1(C)O` [Clarithromycin], the normalised cell viability reads like this: (treatment time: 3 days) 1.02 ± 0.053; (treatment time: 6 days) 0.997 ± 0.081.
In the same order, the values of `CCCCC1=NC2(CCCC2)C(=O)N1Cc1ccc(-c2ccccc2-c2nnn[nH]2)cc1` [Irbesartan] are 1.01 ± 0.031 and 1.04 ± 0.058.
Turning to `CCCCOC(=O)c1ccc(N)cc1` [Butamben], the normalised cell viability is 0.83 ± 0.12 (treatment time: 3 days) and 1.06 ± 0.029 (treatment time: 6 days).
Regarding `N=C(N)NC(=O)c1nc(Cl)c(N)nc1N` [Amiloride hydrochloride dihydrate], the normalised cell viability was found to be 0.884 ± 0.1 (treatment time: 3 days) and 0.98 ± 0.038 (treatment time: 6 days).
In the same order, the values of `O=C1NCN(c2ccccc2)C12CCN(CCCC(c1ccc(F)cc1)c1ccc(F)cc1)CC2` [Fluspirilen] are 0.663 ± 0.036 and 0.405 ± 0.069.
The like results for `CC(C)(C)C(=O)OCOC(=O)[C@@H]1N2C(=O)[C@@H](NC(=O)[C@H](N)c3ccccc3)[C@H]2SC1(C)C` [Pivampicillin] were, in that order, 1.01 ± 0.022 and 1.01 ± 0.013.
In the same order, the values of `Cc1cc(C2CCCCC2)n(O)c(=O)c1` [Ciclopirox ethanolamine] are 0.203 ± 0.0053 and 0.206 ± 0.014.
`COc1cc(C(=O)NS(=O)(=O)c2ccccc2C)ccc1Cc1cn(C)c2ccc(NC(=O)OC3CCCC3)cc12` [Zafirlukast]: the normalised cell viability was determined as 1.06 ± 0.012 (treatment time: 3 days) and 1.03 ± 0.031 (treatment time: 6 days).
In the same order, the values of `NS(=O)(=O)c1cc(C(=O)O)c(NCc2ccco2)cc1Cl` [Furosemide] are 1.1 ± 0.027 and 1.08 ± 0.072.
In the same order, the values of `NC(=O)c1ncn([C@@H]2O[C@H](CO)[C@@H](O)[C@H]2O)n1` [Ribavirin] are 0.614 ± 0.068 and 0.517 ± 0.028.
In the same order, the values of `CCOc1ccc2c(c1)C(C)=CC(C)(C)N2` [Ethoxyquin] are 0.823 ± 0.025 and 1.05 ± 0.14.
As for `CCOC(=O)[C@H](CCc1ccccc1)N[C@@H](C)C(=O)N1[C@H](C(=O)O)C[C@@H]2CCC[C@@H]21` [Ramipril], the normalised cell viability worked out at 1.05 ± 0.073 (treatment time: 3 days) and 1.04 ± 0.049 (treatment time: 6 days).
The like results for `CC(C)COCC(CN(Cc1ccccc1)c1ccccc1)N1CCCC1` (stereo unspecified) [Bepridil hydrochloride] were, in that order, 0.938 ± 0.069 and 0.828 ± 0.035.
In the same order, the values of `NS(=O)(=O)c1cc2c(cc1Cl)N=CNS2(=O)=O` [Chlorothiazide] are 1.16 ± 0.04 and 1.05 ± 0.045.
Regarding `CNS(=O)(=O)Cc1ccc2[nH]cc(CCN(C)C)c2c1` [Sumatriptan succinate], the normalised cell viability (treatment time: 3 days) worked out at 1.05 ± 0.03 and the normalised cell viability (treatment time: 6 days) stood at 0.992 ± 0.031.
As to `CN[C@H](CC(C)C)C(=O)N[C@H]1C(=O)N[C@@H](CC(N)=O)C(=O)N[C@H]2C(=O)N[C@H]3C(=O)N[C@H](C(=O)N[C@H](C(=O)O)c4cc(O)cc(O)c4-c4cc3ccc4O)[C@H](O)c3ccc(c(Cl)c3)Oc3cc2cc(c3O[C@@H]2O[C@H](CO)[C@@H](O)[C@H](O)[C@H]2O[C@H]2C[C@](C)(N)[C@H](O)[C@H](C)O2)Oc2ccc(cc2Cl)[C@H]1O` [Vancomycin hydrochloride], the normalised cell viability is, setting by setting: (treatment time: 3 days) 0.177 ± 0.0067; (treatment time: 6 days) 0.17 ± 0.018.
With `Cc1nnc(NS(=O)(=O)c2ccc(N)cc2)s1` [Sulfamethizole], the normalised cell viability (treatment time: 3 days) was 1.21 ± 0.32 and the normalised cell viability (treatment time: 6 days) was 1.05 ± 0.042.
In the same order, the values of `CCN1CCC[C@H]1CNC(=O)c1c(OC)ccc(Br)c1OC` [Remoxipride Hydrochloride] are 0.999 ± 0.016 and 1.05 ± 0.019.
In the same order, the values of `CCN1CCN(c2cc3c(cc2F)c(=O)c(C(=O)O)cn3C2CC2)CC1` [Enrofloxacin] are 1 ± 0.021 and 1.03 ± 0.039.
Regarding `CC1CC(OC(=O)C(O)c2ccccc2)CC(C)(C)N1C` (stereo unspecified) [Eucatropine hydrochloride], the normalised cell viability by setting is: (treatment time: 3 days) 0.865 ± 0.012; (treatment time: 6 days) 0.848 ± 0.093.
In the same order, the values of `Cc1cnc(NC(=O)C2=C(O)c3ccccc3S(=O)(=O)N2C)s1` [Meloxicam] are 1.15 ± 0.053 and 1.04 ± 0.046.
The like results for `O=C(O)COC(=O)Cc1ccccc1Nc1c(Cl)cccc1Cl` [Aceclofenac] were, in that order, 0.991 ± 0.016 and 0.987 ± 0.021.
As to `O=C(O)/C=C/c1ccc(Cn2ccnc2)cc1` [Ozagrel hydrochloride], the normalised cell viability is 1.03 ± 0.04 (treatment time: 3 days) and 0.995 ± 0.022 (treatment time: 6 days).
The like results for `CCCc1nc(C)c2c(=O)nc(-c3cc(S(=O)(=O)N4CCN(CC)CC4)ccc3OCC)[nH]n12` [Vardenafil] were, in that order, 1.03 ± 0.025 and 1.012 ± 0.0041.
As to `Cc1cc(/C=C/c2ccc3cc(N(C)C)ccc3[n+]2C)c(C)n1-c1ccccc1` [Pyrvinium pamoate], the normalised cell viability by setting is: (treatment time: 3 days) 0.144 ± 0.0086; (treatment time: 6 days) 0.171 ± 0.014.
`CCn1nc(C(=O)O)c(=O)c2cc3c(cc21)OCO3` [Cinoxacin]: the normalised cell viability was 0.997 ± 0.054 (treatment time: 3 days) and 0.918 ± 0.081 (treatment time: 6 days).
`COCCOC(=O)C1=C(C)NC(C)=C(C(=O)OC/C=C/c2ccccc2)C1c1cccc([N+](=O)[O-])c1` (stereo unspecified) [Cilnidipine]: the normalised cell viability is 0.973 ± 0.054 (treatment time: 3 days) and 0.969 ± 0.071 (treatment time: 6 days).
In the same order, the values of `CCCCNc1ccc(C(=O)OCCOCCOCCOCCOCCOCCOCCOCCOCCOC)cc1` [Benzonatate] are 0.956 ± 0.05 and 1 ± 0.024.
In the same order, the values of `COC(=O)Nc1nc2ccc(SC(C)C)cc2[nH]1` [Methiazole] are 0.231 ± 0.016 and 0.245 ± 0.017.
In the same order, the values of `O=C(NCCO[N+](=O)[O-])c1cccnc1` [Nicorandil] are 1.11 ± 0.072 and 1.11 ± 0.13.
Take `C=C1/C(=C\C=C2/CCC[C@]3(C)[C@@H]([C@H](C)/C=C/[C@@H](O)C4CC4)CC[C@@H]23)C[C@@H](O)C[C@@H]1O` [Calcipotriene]: the normalised cell viability runs as follows: (treatment time: 3 days) 0.919 ± 0.033; (treatment time: 6 days) 0.918 ± 0.039.
